Out of some 45,000 compounds screened, about 65 (0.1%) were called active. The call rests on the fitted dose curve; in most records, active means well fitted activation curve with a large enough effect; inconclusive means small, poorly fitted or top-dose-only effect; inactive means no such curve, though single readings can be large or run the other way. This is one part of the list.

For this test, the target named is Galactocerebrosidase (Homo sapiens) (UniProt P54803). The test can be described thus: A Novel Cell-Based Assay to Identify Small Molecules for B -Galactocerebrosidase. Further: 0% is about no effect; nearly all actives have a fitted effect of over 65% in size. Particulars: 145M-Twi-hGALC-G270D cells (Twitcher mouse brain line with human GALC G270D), HMU-beta-Gal fluorescence, 48 h; series mostly up to 57.5 µM; activation: at the top concentration. The essentials: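 Fluorogenic HMU-b-Gal hydrolysis (0.1 mM final, pH 5.2 citrate-phosphate with 1 mg/mL sodium taurocholate; carbonate stop buffer) measures mutant GALC activity after compound treatment of live 145M-Twi Twitcher brain cells stably carrying human GALC-G270D, with wild-type GALC line alongside; activation sought.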
UniProt P54803, sequence (P54803 whole entry, looked up): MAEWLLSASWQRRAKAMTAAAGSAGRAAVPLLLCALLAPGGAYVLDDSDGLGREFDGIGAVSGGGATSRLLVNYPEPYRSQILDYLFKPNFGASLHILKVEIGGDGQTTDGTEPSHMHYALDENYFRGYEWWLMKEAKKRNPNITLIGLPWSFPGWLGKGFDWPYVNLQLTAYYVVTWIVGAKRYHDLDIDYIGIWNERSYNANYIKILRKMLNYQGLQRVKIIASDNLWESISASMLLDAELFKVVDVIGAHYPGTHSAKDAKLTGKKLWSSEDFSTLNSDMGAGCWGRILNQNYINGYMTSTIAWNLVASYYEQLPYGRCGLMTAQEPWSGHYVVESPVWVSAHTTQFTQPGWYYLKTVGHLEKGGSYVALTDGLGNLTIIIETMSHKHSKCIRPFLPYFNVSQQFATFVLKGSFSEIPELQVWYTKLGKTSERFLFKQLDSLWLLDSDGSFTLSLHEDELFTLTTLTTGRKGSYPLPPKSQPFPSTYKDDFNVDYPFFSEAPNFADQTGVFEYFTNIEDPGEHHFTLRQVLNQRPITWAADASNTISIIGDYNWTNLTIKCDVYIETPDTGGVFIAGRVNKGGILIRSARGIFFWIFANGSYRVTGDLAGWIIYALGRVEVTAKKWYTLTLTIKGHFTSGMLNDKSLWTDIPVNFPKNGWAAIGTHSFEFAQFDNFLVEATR
Take `CCOc1ccccc1CNC(=O)C1CCCN(c2nnc(C)c3c(C)n(-c4ccccc4)nc23)C1` (configuration not stated): the “activation” value is inactive: -6.83%. Still for that read-out and setting: to `Cc1ccc(N2C(=O)CCSC23C(=O)N(Cc2ccccc2)c2ccccc23)cc1` (configuration not stated) belongs inactive: 2.29%.

For `CCOCCCn1c(=N)c(C(=O)NCc2cccnc2)cc2c(=O)n3ccccc3nc21`, the “activation” value is inactive: -11%.

Turning to `CCN(CC)C(=O)c1ccc2c(c1)N(Cc1ccc(C(F)(F)F)cc1)C(=O)c1ccccc1S2`, the “activation” value is inactive: -8.71%. On the same count and under the same terms, to `Cc1nn2c(=O)cc(COC(=O)c3cccc(NC(=O)COc4ccccc4C)c3)nc2s1` belongs inactive: -9.13%. Consider `CCC(=O)NCCc1nc2cc(NC(=O)c3cccc(Br)c3)ccc2n1C`, for which the “activation” value is inactive: -3.25%.

On to `Cc1ccc(NC(=O)Nc2nnc(N3CCCC3)s2)cc1C`, for which the “activation” value was inactive: -22%.

Turning to `Cn1c(=O)c(C(=O)O)nn(-c2ccccc2)c1=O`, the “activation” value is inactive: 21.9%. Consider `Cc1ccc(Cn2c3ccccc3c3cnn(CC(=O)Nc4cc(Cl)ccc4C)c(=O)c32)cc1`, for which the “activation” value was inactive: -9.74%.

For `Cc1c(CNC2CCCCC2)c(C(=O)O)c(C)n1Cc1ccc(Cl)cc1`, the “activation” value is inactive: 11.4%.

In the case of `Cc1cc(C)c(NC(=O)Cn2c(=O)n(CCC(=O)N3CCc4ccccc4C3)c(=O)c3ccccc32)c(C)c1`, the “activation” value was inactive: 0.26%. On to `CCN(CC)S(=O)(=O)c1ccc2c(c1)N(CC(=O)N1CCN(c3cccc(C)c3C)CC1)C(=O)CO2`, for which the “activation” value is inactive: -24.8%.

Consider `Clc1ccc(-n2ncc3c(NC4CCCC4)ncnc32)cc1`, for which the “activation” value was inactive: -14.8%. On the same count and under the same terms, to `COc1ccc(Nc2ncnc3sc4c(c23)CCCC4)cc1` belongs inactive: -6.42%; to `Cn1nnnc1SCCCNCc1ccccc1OCc1ccc(Cl)cc1`, inactive: -24.7%. As to `O=C(NCc1ccccc1Cl)c1ccc(CS(=O)(=O)c2ccc(Br)cc2)o1`, the “activation” value is inactive: -0.172%. Turning to `NS(=O)(=O)c1cc2c(cc1Cl)NC(CSCc1ccccc1)=NS2(=O)=O`, the “activation” value was inactive: -13.9%.

With `CC(NC(=O)Cn1ccc2cc(S(=O)(=O)N3CCCCCC3)ccc21)c1ccccc1` (configuration not stated), the “activation” value was inactive: -10.6%.

For the molecule `CCOC(=O)C1CCCN(c2nc3c(S(=O)(=O)c4ccc(CC)cc4)nnn3c3ccc(Cl)cc23)C1` (configuration not stated), the “activation” value is inactive: 9.99%. Consider `COc1ccc(C)cc1NC(=O)Nc1nnc(N2CCCCC2)s1`, for which the “activation” value was inactive: 7.7%.

In the case of `CCc1nn(CCCC(=O)NCc2ccc(OC(C)C)cc2)c(=O)c2cc3occc3n12`, the “activation” value is inactive: -8.57%.

As for `COc1ccc(N2CCN(C(=O)c3cccn3-c3nnc(N4CCCC4)s3)CC2)cc1`, the “activation” value was inactive: -6.06%. On the same count and under the same terms, to `O=C(CSc1n[nH]c(-c2ccccc2Cl)n1)NCCc1ccccc1` belongs inactive: -0.179%; to `CCOc1cc(CNS(=O)(=O)c2ccc3c(c2)C(C)(C)C(=O)N3)cc(OCC)c1OCC`, inactive: 5.73%; to `CCOC(=O)c1c(S(=O)(=O)NCC(=O)N(C)Cc2ccccc2)c(C)n(C)c1C`, inactive: 6.23%. With `CCN1CCN(c2ncnc3c2cnn3-c2cc(Cl)ccc2C)CC1`, the “activation” value was inactive: -14.8%. As to `CC1CCN(S(=O)(=O)c2csc(C(N)=O)c2)CC1`, the “activation” value was inactive: -22%. As to `COc1ccccc1N1CCN(c2ncnc3c2c(-c2ccccc2)cn3-c2cccc(C)c2)CC1`, the “activation” value is inactive: -16.9%. The same measure, in the same setting: to `CCOC(=O)c1cnc(N2CCN(c3ccc(OC)cc3)CC2)c2ccccc12` belongs inactive: -5.56%. On to `CC(=O)Nc1nonc1-c1nnc(SCC(=O)Nc2ccc(C)c(Cl)c2)n1C`, for which the “activation” value is inactive: -11.8%. Consider `CCOc1ccc2c(c1)c(=O)c(S(=O)(=O)c1ccc(C)cc1)cn2Cc1ccccc1Cl`, for which the “activation” value was inactive: -19.6%. Consider `Cc1ccc(CSc2nc3cccnc3n2Cc2ccc(C(=O)NC3CCCCC3)cc2)cc1`, for which the “activation” value was inactive: -11.1%. As for `CCCOc1ccc(C2c3c(oc4ccc(F)cc4c3=O)C(=O)N2CCc2ccc(OC)cc2)cc1` (configuration not stated), the “activation” value was inactive: -15%. With `O=C(CSc1oc(-c2ccc(F)cc2)nc1S(=O)(=O)c1ccc(Br)cc1)NC1CCCCC1`, the “activation” value was inactive: -9.56%. As to `Cc1cccc(CN2CCC(CNc3ncnc4onc(-c5ccc(Cl)cc5)c34)CC2)c1`, the “activation” value was inactive: -11.3%. `CCCCOC(=O)c1ccc(Nc2ncnc3c2cnn3-c2cccc(C)c2)cc1`: the “activation” value was inactive: -6.5%. Consider `COc1ccc(-c2nc(S(=O)(=O)c3ccc(C)cc3)c(N3CCCCC3)o2)cc1`, for which the “activation” value was inactive: -23.8%. Turning to `Cc1ccc(CNC(=O)CN2C(=O)CC(c3ccc(C)c(C)c3)=Nc3ccccc32)cc1`, the “activation” value is inactive: -27.1%. The same measure, in the same setting: to `O=C(NCc1cccc(Cl)c1)NCc1noc2ccccc12` belongs inactive: -18.3%; to `COc1cccc(N2CCN(c3ncnc4c3c(-c3ccccc3)cn4-c3ccc(F)cc3)CC2)c1`, inactive: -13%. For `CCCCN(CC)C(=O)CCCn1c(=O)c2cccn2c2ccccc21`, the “activation” value is inactive: -8.33%.

As to `Cc1ccc(-c2nnc3c4ccccc4c(C)nn23)cc1NC(=O)c1cccc(Br)c1`, the “activation” value is inactive: -7.24%.

As to `Clc1cccc(-n2cc(-c3ccccc3)c3c(NC4CCCC4)ncnc32)c1`, the “activation” value is inactive: -13.9%. On to `Cn1cnc([N+](=O)[O-])c1Sc1ncnc2nc[nH]c12`, for which the Potency entry was “inactive”. Take `COc1ccccc1NC(=O)CSc1nc2c(oc3ccccc32)c(=O)n1Cc1ccco1`: the “activation” value is inactive: -17.9%. For the molecule `COc1ccc(NC(=O)C2CCCN(S(=O)(=O)c3cccc4nonc34)C2)cc1Cl` (configuration not stated), the “activation” value was inactive: -11.4%. The same measure, in the same setting: to `Cc1ccc(Cl)cc1N(C)C(=O)C1CCCN(c2ncnc3onc(-c4ccc(F)cc4)c23)C1` (configuration not stated) belongs inactive: -14.7%; to `COc1ccc(CNC(=O)CCNS(=O)(=O)c2ccc3c(c2)CCCC(=O)N3)cc1`, inactive: -20.4%. Still for that read-out and setting: to `Cc1ccc(Cn2c(CCNC(=O)C(C)C)nc3ccccc32)cc1` belongs inactive: -11.2%.

For `COc1ccc(-c2nc(SCC(=O)NCc3ccccc3Cl)n[nH]2)cc1`, the “activation” value is inactive: 5.88%.

For the molecule `CCOC(=O)CCc1c(C)nc2c(c(C)nn2-c2ccc(C)cc2)c1C`, the “activation” value is inactive: 9.22%. As for `O=C(Cn1nc(-c2ccc(Cl)cc2)ccc1=O)NCCc1ccccc1`, the “activation” value was inactive: -5.92%.

Regarding `O=C(C1CCC1)N1CCc2cc(S(=O)(=O)NCCc3ccccc3)ccc21`, the “activation” value was inactive: 0.548%. The same measure, in the same setting: to `O=c1[nH]c(SCc2c(F)cccc2Cl)nc2c1CCCC2` belongs inactive: 3.18%; to `COc1ccc(-c2nc(CSCC(=O)N3CCN(c4ccccc4)CC3)c(C)o2)cc1`, inactive: -5.62%; to `CC(=O)c1cccc(NS(=O)(=O)c2cccc(S(=O)(=O)c3ccc(Br)cc3)c2)c1`, inactive: -7.67%. For the molecule `COc1ccc(N2CCN(C(=O)CSCc3ccc(C)cc3)CC2)cc1`, the “activation” value is inactive: -21.4%. For the molecule `Cc1ccc2nc(COc3cccc(NC(=O)COc4ccc(F)cc4)c3)cc(=O)n2c1`, the “activation” value is inactive: -19%. On to `Cc1ccc(NC(=O)CCS(=O)(=O)c2ccc3c(c2)oc(=O)n3C)c(Br)c1`, for which the “activation” value was inactive: -12.7%. On the same count and under the same terms, to `Cc1cc(C)cc(-n2c(SCC(=O)NC3CCCCC3)nc3c([nH]c4ccccc43)c2=O)c1` belongs inactive: -11.7%; to `CCOc1cc(S(=O)(=O)NCCc2c(C)[nH]c3ccc(C)cc23)ccc1Br`, inactive: -11.6%; to `COc1ccc(NC(=O)c2cc3c(C)nn(-c4ccccc4)c3s2)c(OC)c1`, inactive: -3.68%.

The values above are taken from PubChem BioAssay AID1159614 (National Center for Advancing Translational Sciences (NCATS), 2016).
